Results on 44 compounds are retold here after PMC4336329 (PLoS ONE, 2015).

In all, about 310,000 compounds went through this assay and about 14,000 (4.5%) showed an effect of 50% or more. Effects have a minus sign here. Some of the results follow.
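Also: peak tail current of the secondary pulse compared with the same well before compound.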

The target of the experiment is human ether-à-go-go-related gene (hERG) potassium channel (human, UniProt Q12809). The experiment in a line: primary screen, population patch clamp on CHO cells stably expressing hERG.
Sequence of human ether-à-go-go-related gene (hERG) potassium channel (Q12809 whole entry, looked up): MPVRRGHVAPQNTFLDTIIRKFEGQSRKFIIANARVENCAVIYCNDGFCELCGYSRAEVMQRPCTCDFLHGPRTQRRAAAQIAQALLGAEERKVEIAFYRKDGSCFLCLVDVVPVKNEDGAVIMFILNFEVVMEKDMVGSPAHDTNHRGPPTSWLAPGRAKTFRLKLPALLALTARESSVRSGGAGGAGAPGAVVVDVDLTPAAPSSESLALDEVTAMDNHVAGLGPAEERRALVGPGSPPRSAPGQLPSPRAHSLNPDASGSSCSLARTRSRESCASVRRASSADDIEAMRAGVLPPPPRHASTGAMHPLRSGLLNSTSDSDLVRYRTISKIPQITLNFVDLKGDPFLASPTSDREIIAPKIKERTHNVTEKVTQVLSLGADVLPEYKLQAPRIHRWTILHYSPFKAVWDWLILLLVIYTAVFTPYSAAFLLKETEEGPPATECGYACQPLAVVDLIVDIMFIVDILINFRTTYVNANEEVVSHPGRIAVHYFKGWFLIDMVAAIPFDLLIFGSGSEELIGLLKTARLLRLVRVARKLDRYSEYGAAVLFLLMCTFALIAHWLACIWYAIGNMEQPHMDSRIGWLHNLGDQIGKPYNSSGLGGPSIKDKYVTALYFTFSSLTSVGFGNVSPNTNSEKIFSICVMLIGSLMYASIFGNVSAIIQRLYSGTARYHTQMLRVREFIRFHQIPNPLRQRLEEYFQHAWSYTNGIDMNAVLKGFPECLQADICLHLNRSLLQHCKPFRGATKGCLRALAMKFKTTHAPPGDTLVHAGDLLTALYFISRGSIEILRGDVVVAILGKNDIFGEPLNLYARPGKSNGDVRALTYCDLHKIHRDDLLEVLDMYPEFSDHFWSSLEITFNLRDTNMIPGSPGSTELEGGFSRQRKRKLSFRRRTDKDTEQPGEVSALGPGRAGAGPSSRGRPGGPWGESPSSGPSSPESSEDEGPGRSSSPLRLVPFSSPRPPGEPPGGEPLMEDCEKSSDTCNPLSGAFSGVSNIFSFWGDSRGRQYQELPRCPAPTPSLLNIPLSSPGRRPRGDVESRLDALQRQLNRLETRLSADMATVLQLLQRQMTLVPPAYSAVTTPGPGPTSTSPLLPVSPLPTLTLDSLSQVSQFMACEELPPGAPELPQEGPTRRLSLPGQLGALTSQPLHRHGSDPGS
As to `CC(C)(C)OC(=O)N1C[C@H](O)C[C@H]1C(=O)OCC(=O)c1ccc([N+](=O)[O-])cc1`, the “hERG current change (%, negative = inhibition) at 10uM” value was -63.4%.
For `Brc1ccccc1OCCCCCN1CCCC1`, the “hERG current change (%, negative = inhibition) at 10uM” value is -33.9%.
As for `Cc1ccc(C(=O)OCN2C(=O)c3ccccc3C2=O)c(O)c1`, the figure is 22.6%.
As for `Nc1ccc2oc(=O)c3ccccc3c2c1`, the figure is -4.73%; as for `Cn1c(=O)oc2cc(S(=O)(=O)NCc3ccc(C(=O)O)cc3)ccc21`, 54.7%; as for `COC(=O)C1=C(c2cccc(OC)c2OC)C[C@@H]2CC[C@H]1N2C(=O)N1CCOCC1`, -1.1%.
As for `CCc1ccc(NS(=O)(=O)c2ccc3[nH]cc(C(=O)N4CCCCC4)c(=O)c3c2)cc1`, the figure is 0.775%.
In the case of `O=c1[nH]c(N/N=C/c2ccc(O)cc2)nc2ccccc12`, the “hERG current change (%, negative = inhibition) at 10uM” value is on record as -3.67%.
On to `Cc1nn(C(=O)c2ccco2)c(C)c1Sc1ccccc1`, for which the “hERG current change (%, negative = inhibition) at 10uM” value stood at 15.7%.
To `O=C(CSc1nnc(-c2ccc(C(F)(F)F)cn2)o1)Nc1ccccc1Cl` belongs 23.8%.
To `CC(C)Cn1c(=O)c2sccc2n2c(CCCC(=O)N3CCC(N4CCCCC4)CC3)nnc12` belongs 4.55%; to `CCC(C)[C@H](NC(=O)NCc1ccco1)C(=O)OC` (some centres unmarked), 2.22%.
Turning to `O=c1[nH]c(=O)n(Cc2ccco2)c(O)c1/C=N/N1CCCCC1`, the “hERG current change (%, negative = inhibition) at 10uM” value was found to be 3.21%.
For `CNC(=O)c1c(O)c2cccc3c2n(c1=O)CC3`, the “hERG current change (%, negative = inhibition) at 10uM” value was -8.81%.
In the case of `O=C(CCCCCn1c(=S)[nH]c2ccc(N3CCOCC3)cc2c1=O)NC1CCN(Cc2ccccc2)CC1`, the “hERG current change (%, negative = inhibition) at 10uM” value is -9.35%.
Turning to `COc1ccc(NC(=O)CSc2nnnn2C2CCCCC2)c(OC)c1`, the “hERG current change (%, negative = inhibition) at 10uM” value is on record as 5.68%.
In the case of `COc1ccccc1NC(=S)NCc1ccc2c(c1)OCO2`, the “hERG current change (%, negative = inhibition) at 10uM” value is listed as 2.34%.
As for `c1ccc(-c2nc[nH]c2-c2ccccc2)cc1`, the figure is 0.582%; as for `CCCOC(=O)c1ccc(NC(=O)c2cc(OC)c(OC)c(OC)c2Br)cc1`, 8.82%.
Turning to `NC(=O)NC(=O)CC1S/C(=N/N=C2/NC(=O)CS2)NC1=O` (centres unmarked), the “hERG current change (%, negative = inhibition) at 10uM” value amounted to 11.5%.
As to `CC(c1nnc(SCC(=O)Nc2ccc3[nH]c(=O)[nH]c3c2)n1Cc1ccccc1)N(C)C` (centres unmarked), the “hERG current change (%, negative = inhibition) at 10uM” value came to 5.17%.
For the compound `O=C(Nc1ccc(S(=O)(=O)Nc2ncccn2)cc1)c1cncc(Br)c1`, the “hERG current change (%, negative = inhibition) at 10uM” value is on record as 10.6%.
With `Cc1ccc2nc3c(c(C(=O)OCC(=O)NC4CCS(=O)(=O)C4)c2c1)CCCC3` (centres unmarked), the “hERG current change (%, negative = inhibition) at 10uM” value is -3.23%.
For `Cc1ccccc1OCCn1c(CCNC(=O)C(C)C)nc2ccccc21`, the “hERG current change (%, negative = inhibition) at 10uM” value was -6.24%.
To `O=C(COc1ccc(Br)cc1Br)NC1CCS(=O)(=O)C1` (centres unmarked) belongs -13.4%; to `COC(=O)c1ccc(OCC(O)CNC2CCCC2)cc1.Cl` (centres unmarked), 13.3%; to `O=C(OCc1nnc(-c2ccccc2)o1)c1cc(=O)[nH]c2ccccc12`, 16.7%.
With `CC1CCCC(C)N1C(=O)COc1ccc(F)cc1` (centres unmarked), the “hERG current change (%, negative = inhibition) at 10uM” value came out at 4.28%.
Take `CCC(C)NC(=O)c1cnn2c1NC(c1cccs1)CC2C(F)(F)F` (centres unmarked): the “hERG current change (%, negative = inhibition) at 10uM” value is reported as -11.3%.
`CCOc1ccc(OCC)c(NC(=O)CCCN2C(=S)NC(C)(C)CC2C)c1` (centres unmarked): the “hERG current change (%, negative = inhibition) at 10uM” value was 2.95%.
As for `COc1ccc(-c2noc(C3CCCN(S(=O)(=O)c4ccc(C)c(Cl)c4)C3)n2)cc1OC` (centres unmarked), the figure is 6.21%.
Regarding `C=CCn1c(C(CCCC)CC(O)COCC(C)C)n[nH]c1=S` (centres unmarked), the “hERG current change (%, negative = inhibition) at 10uM” value stood at 1.88%.
As for `COc1ccc(C)cc1NCc1ccc([N+](=O)[O-])cc1`, the “hERG current change (%, negative = inhibition) at 10uM” value is reported as -0.771%.
For `OCCNc1nc(Nc2cc(Cl)ccc2OC2CCCC2)nc(N2CCCC2)n1`, the “hERG current change (%, negative = inhibition) at 10uM” value came out at 13.5%.
As to `O=C(CSc1nnc2ccccn12)N1CCOCC1`, the “hERG current change (%, negative = inhibition) at 10uM” value is reported as 8.28%.
As to `COc1ccc(NC(=O)Nn2cnnc2)cc1OC`, the “hERG current change (%, negative = inhibition) at 10uM” value is reported as 20.7%.
As to `Cc1ccc(NC(=O)C(C)N2CCOCC2)c(C(=O)c2ccccc2)c1` (centres unmarked), the “hERG current change (%, negative = inhibition) at 10uM” value is -26.9%.
`CCCc1cc(=O)[nH]c(SC/C=C/c2ccccc2)n1`: the “hERG current change (%, negative = inhibition) at 10uM” value was found to be 9.33%.
Regarding `COc1ccc(S(=O)(=O)N2CN3CCN(C3)C2)cc1`, the “hERG current change (%, negative = inhibition) at 10uM” value was 6.13%.
For the compound `O=C(CN1C(=O)NC2(CCCCC2)C1=O)NCCCSc1ccccc1`, the “hERG current change (%, negative = inhibition) at 10uM” value is on record as -18.4%.
To `CC(=O)Nc1cccc(NC(=O)CSc2nc(=O)n(CCN3CCOCC3)c3c2CCCC3)c1` belongs 0.233%; to `O=C(CSc1ncnc2c1oc1ccccc12)Nc1cccc(Cl)c1`, -2.16%; to `O=C(c1cc2sccc2n1Cc1ccc(F)cc1)N1CCN(c2nc3ccccc3s2)CC1`, -20.8%.
With `Cc1ccc2c(C)c(C(=O)N3CCN(Cc4ccc5c(c4)OCO5)CC3)oc2c1C`, the “hERG current change (%, negative = inhibition) at 10uM” value is on record as 2.23%.
